# Measured values published in PubChem BioAssay AID504332 (National Center for Advancing Translational Sciences (NCATS), 2011).
# Hit rate of the full screen: of about 350,000 compounds, about 31,000 (8.9%) were called active. Inconclusive results, whose numbers are uncertain, are shown with a selection of clear calls. The call rests on the fitted dose curve; in most records, active means well fitted inhibition curve with a large enough effect; inconclusive means small, poorly fitted or top-dose-only effect; inactive means no such curve, though single readings can be large or run the other way. A potency beside an inconclusive call is a rough fit, not a confirmed value.
# Molecular target: Histone-lysine N-methyltransferase EHMT2 (Homo sapiens) (UniProt Q96KQ7)
# Assay: qHTS Assay for Inhibitors of Histone Lysine Methyltransferase G9a; further: nearly all actives have a fitted effect of over 75% in size
# Conditions: G9a H3K9 monomethylation, AlphaScreen, 2 h; activity, negative = inhibition: at 59 µM (top of the series) unless noted
# How it was run: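 G9a (20 nM) was preincubated 15 min with compound, then reacted 2 h at room temperature with 500 nM biotin-H3K9 peptide and 20 µM SAM. Monomethyl-H3K9 detected by AlphaScreen using anti-H3K9me1 antibody.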
# On the % scale 0 is the no-effect control and ±100 the full control effect; potency means the concentration at half of the fitted maximal effect; tags describe the fitted curve by direction and shape.
# Chain of UniProt Q96KQ7 (Q96KQ7 whole entry, looked up): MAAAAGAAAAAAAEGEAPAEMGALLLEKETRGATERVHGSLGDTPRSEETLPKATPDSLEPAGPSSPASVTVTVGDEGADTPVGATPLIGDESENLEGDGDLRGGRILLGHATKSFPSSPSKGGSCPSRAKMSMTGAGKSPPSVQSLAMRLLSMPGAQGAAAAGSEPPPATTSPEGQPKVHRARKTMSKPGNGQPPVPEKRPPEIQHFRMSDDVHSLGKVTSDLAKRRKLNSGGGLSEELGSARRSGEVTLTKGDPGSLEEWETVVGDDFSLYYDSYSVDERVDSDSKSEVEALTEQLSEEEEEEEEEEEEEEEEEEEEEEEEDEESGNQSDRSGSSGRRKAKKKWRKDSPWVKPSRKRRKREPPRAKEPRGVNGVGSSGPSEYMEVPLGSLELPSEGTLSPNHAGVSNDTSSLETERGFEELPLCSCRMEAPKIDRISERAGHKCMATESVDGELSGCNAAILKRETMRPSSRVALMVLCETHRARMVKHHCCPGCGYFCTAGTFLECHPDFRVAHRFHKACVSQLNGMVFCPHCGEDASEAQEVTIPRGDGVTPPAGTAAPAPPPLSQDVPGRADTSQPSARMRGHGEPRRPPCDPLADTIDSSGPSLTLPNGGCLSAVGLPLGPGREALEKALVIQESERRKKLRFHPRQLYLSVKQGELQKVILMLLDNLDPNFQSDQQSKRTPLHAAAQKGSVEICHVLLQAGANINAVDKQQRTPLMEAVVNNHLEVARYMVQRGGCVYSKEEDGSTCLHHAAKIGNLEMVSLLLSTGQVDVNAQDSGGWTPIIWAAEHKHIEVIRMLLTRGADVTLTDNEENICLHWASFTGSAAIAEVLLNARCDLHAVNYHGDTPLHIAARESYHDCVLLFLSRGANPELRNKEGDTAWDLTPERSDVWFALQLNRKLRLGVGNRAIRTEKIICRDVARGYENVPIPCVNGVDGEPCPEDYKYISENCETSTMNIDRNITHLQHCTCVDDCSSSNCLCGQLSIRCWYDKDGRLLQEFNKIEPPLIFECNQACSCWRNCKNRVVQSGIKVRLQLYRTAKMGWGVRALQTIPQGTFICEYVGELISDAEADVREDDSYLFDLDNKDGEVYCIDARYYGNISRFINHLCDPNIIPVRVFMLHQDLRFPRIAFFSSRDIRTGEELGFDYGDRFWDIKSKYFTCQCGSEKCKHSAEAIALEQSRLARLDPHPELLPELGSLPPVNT
SMILES,Potency,"activity, negative = inhibition"
O=C1N(C2CCCC2)C[C@@H]2C[C@@H](c3cccn3-c3nccs3)N3CCC[C@@]123,active: 50.1 µM,
Oc1ccc(-c2nc(-c3ccc(O)c(O)c3)cs2)cc1,active: 8.91 µM,
COc1cc2c(cc1OC)CN(C(C)C(=O)N1CCc3ccccc31)CC2 (stereo unspecified),"inconclusive: 89.1 µM [inhibitor, single point]",
Cc1c(C(=O)Nc2cccnc2Cl)oc2ccccc12,inactive,
CC(Sc1nc2ccccc2n1C)C(=O)NC(c1ccccc1)c1ccccc1 (stereo unspecified),"inconclusive: 39.8 µM [inhibitor, single point]",
CC(=O)Nc1ccc(NC(=O)COC(=O)/C=C/c2ccc3c(c2)OCO3)cc1,"inconclusive: 25.1 µM [inhibitor, single point]",
NNc1nc(-c2ccccc2)cc(-c2ccccc2O)n1,inactive,
COc1ccc(-n2cnc3scc(-c4ccc(OC)c(OC)c4)c3c2=O)cc1,"inconclusive: 79.4 µM [inhibitor, partial curve, poor fit]",
O=C(c1ccc(Cl)cc1)C(Cn1cncn1)C(Sc1ccccc1)c1ccccc1 (stereo unspecified),"inconclusive: 28.2 µM [inhibitor, single point]",
CCOC(=O)C1(CCCc2ccccc2)CCN(Cc2ccn[nH]2)CC1,active: 50.1 µM,
CCCC(C(=O)Nc1ccc(S(=O)(=O)Nc2nccs2)cc1)c1ccccc1 (stereo unspecified),"inconclusive: 31.6 µM [inhibitor, partial curve, poor fit]",
O=C(CCNC(=O)c1ccccc1Cl)Nc1ccc2c(c1)OCO2,"inconclusive: 15.8 µM [inhibitor, full curve, poor fit]",
O=[N+]([O-])c1ccc(/C=N/NC(=S)Nc2ccccc2F)o1,"inconclusive: 39.8 µM [inhibitor, single point]",
COc1ccccc1N1CCN(C(=O)CSc2nc(-c3ccco3)cc(C(F)(F)F)n2)CC1,"inconclusive: 3.55 µM [inhibitor, single point]",
COC(=O)C1=C(N)OC2=C(C(=O)CC(C)(C)C2)C1c1ccoc1 (stereo unspecified),"inconclusive: 39.8 µM [inhibitor, single point]",
COc1ccc(C)cc1NC(=O)Nc1ccccc1,"inconclusive: 89.1 µM [inhibitor, single point]",
CCOc1ccccc1NC(=S)/C(=C(\[O-])c1ccc2c(c1)OCCO2)[n+]1ccc(CC)cc1,active: 8.91 µM,
CCOc1ccc(NC(=O)c2oc3ccccc3c2NC(=O)c2cc3ccccc3o2)cc1,inactive,
C=CCc1ccccc1OCCNCc1ccccc1,active: 8.91 µM,
CCn1c(SCC(=O)Nc2ccc(C(C)=O)cc2)nc2nc3c(cc2c1=O)COC(C)(C)C3,"inconclusive: 100 µM [inhibitor, partial curve, poor fit]",
CCOc1ccc(CN(C)CC(=O)Nc2ccc([N+](=O)[O-])cc2Cl)cc1,"inconclusive: 89.1 µM [inhibitor, single point]",
COc1cc(/C=C2/C(=N)N3C(=NC2=O)SN=C3S(C)(=O)=O)ccc1OS(=O)(=O)c1ccccc1,active: 25.1 µM,
CCOC(=O)CSc1nc2cc3c(cc2c(=O)n1CCCCCC(=O)NCc1ccc(OC)cc1)OCO3,inactive,
Nn1c(SCC(=O)Nc2ccc3c(c2)OCO3)nnc1-c1cccc(Cl)c1,inactive,

SMILES,Potency,"activity, negative = inhibition"
CC(C)CCOc1ccc(CO[C@@H]2[C@H]3OC(C)(C)O[C@H]3O[C@@H]2C(O)CO)cc1 (stereo partly specified),inactive,
Cc1cc(C(=O)COc2ccccc2C#N)c(C)n1C1CC1,,inactive: 13.1% [at 0.501 µM]
CC1(C)CC(N2CCN(c3ccccc3)CC2)=CC(=[N+]2CCCC2)C1,active: 44.7 µM,
CCOC(=O)c1c(S(=O)(=O)NCCCc2ccco2)c(C)n(C)c1C,active: 44.7 µM,
COc1ccc(N2CCN(CCCNC(=O)c3ccc4nc(N5CCCCC5)sc4c3)CC2)cc1,"inconclusive: 2 µM [inhibitor, full curve]",
CCCCN(CCCC)C(=O)c1cn(CC)c2cc(N3CCN(C)CC3)c(F)cc2c1=O,"inconclusive: 56.2 µM [inhibitor, partial curve, poor fit]",
O=C(CC(Sc1ccc(Br)cc1)C(=O)O)c1ccc(F)cc1 (stereo unspecified),"inconclusive: 70.8 µM [inhibitor, single point]",
CC(C)(C)c1ccc(-c2nnc(-c3ccccc3NC(=O)c3ccc(F)cc3F)o2)cc1,inactive,
Fc1ccc(NCc2cccnc2)cc1F,"inconclusive: 7.94 µM [inhibitor, full curve, poor fit]",
CN(CC(=O)Nc1ccc(S(=O)(=O)N2CCOCC2)cc1)Cc1ccc(F)cc1,"inconclusive: 3.98 µM [inhibitor, single point]",
C=CCSc1nnc(NC(=O)c2ccc(S(=O)(=O)NCC3CCCO3)cc2)s1 (stereo unspecified),,inconclusive: -62.4% [inhibitor]
Oc1ccc(/C=N/n2cnn(Cc3ccccc3Cl)c2=S)c(O)c1,active: 3.16 µM,
CCC(C)NC(=O)c1cc(C)no1 (stereo unspecified),inactive,
CCCOc1ccc(CSc2n[nH]c(C)n2)cc1,"inconclusive: 31.6 µM [inhibitor, partial curve, poor fit]",
Nc1ccc(O)cc1C(=O)OCC(=O)c1ccc(C2CCCCC2)cc1,active: 44.7 µM,
CSc1ccc(S(=O)(=O)NC(C)c2ccccc2)cc1 (stereo unspecified),"inconclusive: 79.4 µM [inhibitor, single point]",
COc1cc(C(=O)NC2CCCc3ccccc32)cc(OC)c1OC (stereo unspecified),inactive,
COc1ccc(C(=O)Nc2ccccc2C(=O)Nc2cccnc2)cc1,"inconclusive: 25.1 µM [inhibitor, single point]",
O=C(CSc1oc(-c2ccco2)nc1S(=O)(=O)c1ccc(Cl)cc1)Nc1ccc(F)cc1,"inconclusive: 10 µM [inhibitor, partial curve, poor fit]",
CCOC(=O)c1c(NC(=O)C(C)Sc2cn(C)c3ccccc23)sc2c1CCC2 (stereo unspecified),"inconclusive: 50.1 µM [inhibitor, partial curve]",
CCOC(=O)C(Oc1ccc(=O)[nH]n1)C(C)=O (stereo unspecified),"inconclusive: 89.1 µM [inhibitor, single point]",
CC(C)(C)c1ccc(C(=O)N2CCC(=O)N(C(CO)Cc3ccccc3)CC2)cc1 (stereo unspecified),"inconclusive: 56.2 µM [inhibitor, partial curve]",
Cc1ccc(C(=O)NN2C(=O)c3ccc(S(=O)(=O)c4ccc(C(=O)O)cc4)cc3C2=O)cc1,"inconclusive: 89.1 µM [inhibitor, partial curve, poor fit]",
COc1ccc(C(=O)COC(=O)/C=C/c2ccco2)cc1F,,inactive: 18.9% [at 12.7 µM]

SMILES,Potency,"activity, negative = inhibition"
CCCCCCC1CCC(C(=O)NC(C(=O)O)C(C)C)CC1 (stereo unspecified),inactive,
Cc1ccc(-n2nnnc2SC(C)C(=O)NCC(=O)Nc2ccc(F)c(F)c2F)c(C)c1 (stereo unspecified),"inconclusive: 3.98 µM [inhibitor, full curve, poor fit]",
CC1SC(=S)N(c2ccc(N(C)C)cc2)C1=O (stereo unspecified),active: 44.7 µM,
C/C(=N\NC(=O)c1cc(O)ccc1O)c1cccc(NC(=O)c2cccc(Cl)c2)c1,"inconclusive: 70.8 µM [inhibitor, single point]",
COc1ccc(N2CCN(C3CCCN(S(=O)(=O)c4ccc(C)cc4C)C3)CC2)cc1 (stereo unspecified),active: 35.5 µM,
Cc1ccccc1NCCNc1ccccc1C,active: 44.7 µM,
CCOC(=O)/C(=C/c1c[nH]c2ccccc12)NC(C)=O,inactive,
COc1cccc(/C=C2/SC(=O)N(C)C2=O)c1OCc1ccc(C(=O)O)cc1,inactive,
COC(=O)c1ccc(C)c(NC(=O)CCc2cc(OC)c(OC)c(OC)c2)c1,active: 44.7 µM,
COc1ccc2c(Sc3ccc(Cl)cc3)c(C(=O)N3CCCCC3)[nH]c2c1,"inconclusive: 11.2 µM [inhibitor, partial curve, poor fit]",
CC(C)c1ccc(NC(=O)CSC2=Nc3ccccc3C3=NC(CC(=O)NC4CCCCC4)C(=O)N23)cc1 (stereo unspecified),inactive,
Cc1cc(N2CCOCC2)n2ncc(-c3ccccc3)c2n1,"inconclusive: 6.31 µM [inhibitor, single point]",
COc1cc(/C=C2/SC(=S)N(Cc3ccccc3)C2=O)cc(Cl)c1O,active: 44.7 µM,
NS(=O)(=O)c1ccc(CNC(=O)c2csc3c2CCCC3)cc1,active: 20 µM,
C=CCOc1ccc(C2C3=C(CCCC3=O)N(CC(=O)O)C3=C2C(=O)CCC3)cc1OCC,"inconclusive: 89.1 µM [inhibitor, single point]",
CC(C)c1cc(N2CCN(C(=O)c3ccco3)CC2)n2c(nc3ccccc32)c1C#N,"inconclusive: 100 µM [inhibitor, single point]",
Cc1oc2cc3oc(=O)c(CCC(=O)NCCCC(=O)O)c(C)c3cc2c1C,"inconclusive: 79.4 µM [inhibitor, single point]",
COc1cc2c(C(=O)N3CCN(c4ccccc4)CC3)c(C)oc2cc1Br,"inconclusive: 56.2 µM [inhibitor, partial curve, poor fit]",
O=C(/C=C/c1ccc(-c2ccccc2[N+](=O)[O-])o1)c1ccc(Br)cc1,active: 25.1 µM,
CCOC(=O)c1c(C)[nH]c(N=Nc2ccc(C)cc2C)c1C,active: 44.7 µM,
COc1nccnc1NS(=O)(=O)c1ccc(NC(=S)NC(=O)c2ccccc2F)cc1,"inconclusive: 39.8 µM [inhibitor, single point]",
CC(Sc1ccccn1)C(=O)Nc1ccc2c(c1)OCCO2 (stereo unspecified),"inconclusive: 35.5 µM [inhibitor, single point]",
O=C(Nc1ccc(Cl)cc1)C1CCN(S(=O)(=O)c2ccc(Br)s2)CC1,inactive,
